According to patent US20110262477A1 (priority 2008, published 2011):

System: S. aureus Newman
Experiment: Active immunization with Eap or Emp and staphylococcal challenge (FIG. 13A-B)
Conditions: active immunization day 0 and 11, challenge 1×10^7 CFU S. aureus Newman, five days following infection; FIG. 13B

Molecule	reduction in staphylococcal load within kidney tissues [log10 CFU g^−1]
Eap: recombinant His-tagged staphylococcal envelope associated protein Eap (SEQ ID NO:4) purified from E. coli, vaccine antigen (protein, listed as Staphylococcus aureus, His-tag) MKFKSLITTTLALGVLASTGANFNNNEASAAAKPLDKSSSSLHHGYSKVHVPYAITVNGTSQNILSSLTFNKNQNISYKDLEDRVKSVLKSDRGISDIDLRLSKQAKYTVYFKNGTKKVIDLKAGIYTADLINTSEIKAININVDTKKQVEDKKKDKANYQVPYTITVNGTSQNILSNLTFNKNQNISYKDLEDKVKSVLESNRGITDVDLRLSKQAKYTVNFKNGTKKVIDLKSGIYTANLINSSDIKSININVDTKKHIENKAKRNYQVPYSINLNGTSTNILSNLSFSNKPWTNYKNLTSQIKSVLKHDRGISEQDLKYAKKAYYTVYFKNGGKRILQLNSKNYTANLVHAKDVKRIEITVKTGTKAKADRYVPYTIAVNGTSTPILSDLKFTGDPRVGYKDISKKVKSVLKHDRGIGERELKYAKKATYTVHFKNGTKKVININSNISQLNLLYVQDIKKIDIDVKTGTKAKADSYVPYTIAVNGTSTPILSKLKISNKQLISYKYLNDKVKSVLKSERGISDLDLKFAKQAKYTVYFKNGKKQVVNLKSDIFTPNLFSAKDIKKIDIDVKQYTKSKKNK	1.939
Emp: recombinant His-tagged staphylococcal envelope associated protein Emp (SEQ ID NO:2) purified from E. coli, vaccine antigen (protein, listed as Staphylococcus aureus, His-tag) MKKKLLVLTMSTLFATQIMNSNHAKASVTESVDKKFVVPESGINKIIPAYDEFKNSPKVNVSNLTDNKNFVASEDKLNKIADSSAASKIVDKNFVVPESKLGNIVPEYKEINNRVNVATNNPASQQVDKHFVAKGPEVNRFITQNKVNHHFITTQTHYKKVITSYKSTHVHKHVNHAKDSINKHFIVKPSESPRYTHPSQSLIIKHHFAVPGYHAHKFVTPGHASIKINHFCVVPQINSFKVIPPYGHNSHRMHVPSFQNNTTATHQNAKVNKAYDYKYFYSYKVVKGVKKYFSFSQSNGYKIGKPSLNIKNVNYQYAVPSYSPTHYVPEFKGSLPAPRV	0.959
